Experimental data published in patent US20090306098A1 (Cyclacel Limited, priority 2005, published 2009).

Test system: A549 cells
Details: A549, 72 h; IC50 butyrate, 0.25-1.5×IC50 seliciclib, alone or together; FIG. 1

Row | Structure (SMILES) | sub-G1 cells (<2n DNA, dead or undergoing apoptosis)
1 | CCCC(=O)[O-].[Na+] [Butyrate, sodium butyrate] | small increase
2 | CC[C@H](CO)Nc1nc(NCc2ccccc2)c2ncn(C(C)C)c2n1 [seliciclib, 2-(1-R-hydroxymethylpropylamino)-6-benzylamino-9-isopropylpurine] | dose-dependent increase
